Publication PMC4336329 (PLoS ONE, 2015)
Screen size: about 310,000 compounds; about 14,000 (4.5%) showed an effect of 50% or more. Effects have a minus sign here. This is one part of the list.

Molecular target: human ether-à-go-go-related gene (hERG) potassium channel (human, UniProt Q12809)
Assay: primary screen, population patch clamp on CHO cells stably expressing hERG
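Further: peak tail current of the secondary pulse compared with the same well before compound.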

human ether-à-go-go-related gene (hERG) potassium channel, sequence (Q12809 whole entry, looked up): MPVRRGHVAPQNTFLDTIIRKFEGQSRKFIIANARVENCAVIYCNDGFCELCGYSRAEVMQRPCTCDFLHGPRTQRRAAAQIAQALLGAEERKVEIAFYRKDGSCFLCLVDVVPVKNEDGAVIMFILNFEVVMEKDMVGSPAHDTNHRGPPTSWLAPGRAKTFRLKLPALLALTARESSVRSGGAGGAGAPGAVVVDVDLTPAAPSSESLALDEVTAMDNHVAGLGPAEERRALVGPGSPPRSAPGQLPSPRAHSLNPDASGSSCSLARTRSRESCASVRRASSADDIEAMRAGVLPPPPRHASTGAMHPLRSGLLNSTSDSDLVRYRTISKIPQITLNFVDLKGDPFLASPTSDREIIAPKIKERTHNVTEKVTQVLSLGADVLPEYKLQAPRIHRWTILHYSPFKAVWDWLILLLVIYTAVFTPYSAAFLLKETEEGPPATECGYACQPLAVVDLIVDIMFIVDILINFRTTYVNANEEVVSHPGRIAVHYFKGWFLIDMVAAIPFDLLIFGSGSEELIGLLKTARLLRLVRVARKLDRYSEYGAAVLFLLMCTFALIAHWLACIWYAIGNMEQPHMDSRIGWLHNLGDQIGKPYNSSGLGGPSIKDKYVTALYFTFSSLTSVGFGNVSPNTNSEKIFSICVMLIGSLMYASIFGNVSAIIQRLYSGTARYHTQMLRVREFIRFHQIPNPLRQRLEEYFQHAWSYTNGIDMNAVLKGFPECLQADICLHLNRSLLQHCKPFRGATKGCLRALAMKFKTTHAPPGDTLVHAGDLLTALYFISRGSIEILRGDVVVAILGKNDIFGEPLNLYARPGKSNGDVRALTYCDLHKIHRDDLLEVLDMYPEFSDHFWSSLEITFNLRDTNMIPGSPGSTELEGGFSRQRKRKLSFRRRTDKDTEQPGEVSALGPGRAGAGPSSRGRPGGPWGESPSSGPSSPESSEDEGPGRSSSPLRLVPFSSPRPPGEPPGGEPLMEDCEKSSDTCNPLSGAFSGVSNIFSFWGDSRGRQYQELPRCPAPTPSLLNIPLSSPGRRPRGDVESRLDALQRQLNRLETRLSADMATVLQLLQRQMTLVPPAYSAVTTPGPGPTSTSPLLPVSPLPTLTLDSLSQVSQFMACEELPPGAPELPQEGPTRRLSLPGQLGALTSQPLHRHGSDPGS

Going from `O=C(Cn1ncn2c(cc3cc(F)ccc32)c1=O)N1CCC2(CC1)OCCO2` to `COc1cc(C(=O)NCCc2ccc(F)cc2)ccc1OCC(=O)N1CCOCC1`, the “hERG current change (%, negative = inhibition) at 10uM” value falls from 15.3% to -6.63%.

First: O=C(COS(=O)c1ccccc1)Nc1cc(Cl)ccc1N1CCOCC1 (centres unmarked)
Second: Cc1ccc(NC(=O)C2(c3ccccc3)CCOCC2)c([N+](=O)[O-])c1
The “hERG current change (%, negative = inhibition) at 10uM” value of the first is lower: -37.3% for the first, -22.5% for the second.

Going from `Cc1ccc(C(=O)CN2C(=O)C(=O)N(Cc3ccccc3)C2=O)cc1` to `COc1ccc(-c2nc3c(c(=O)c4ccccc4n3C)c(=O)n2Cc2ccccc2)cc1`, the “hERG current change (%, negative = inhibition) at 10uM” value falls from 10.2% to 9.65%.

Compared with `Cc1ccccc1Cn1cc(NC(=O)c2cc(-c3cccs3)on2)cn1`, `Cc1ccccc1-c1noc(-c2ccccc2C(=O)O)n1` is higher in “hERG current change (%, negative = inhibition) at 10uM” value: -11.9% for the first, -11.5% for the second.

Going from `COc1cc(OC)c(OC)cc1/C=C1\Oc2cc(OCC(=O)N3Cc4ccccc4C[C@H]3C(=O)O)ccc2C1=O` to `O=C(O)C1Cc2ccccc2CN1C(=O)CSc1nnc2ccccn12` (centres unmarked), the “hERG current change (%, negative = inhibition) at 10uM” value rises from 4.38% to 5.9%.

First: Nc1nnc(CC(=O)N/N=C\c2cc([N+](=O)[O-])ccc2O)s1
Second: Cc1cccc[n+]1CC(=O)Nc1ccc([N+](=O)[O-])cc1Cl.[Cl-]
The “hERG current change (%, negative = inhibition) at 10uM” value of the first is higher: 26.3% for the first, 18.4% for the second.

Compared with `CCN(c1ccccc1)S(=O)(=O)c1ccc(Oc2ccc(C(C)=O)cc2OC)nc1`, `CCOc1ccccc1C(=O)Nc1cc(OC)ccc1OC` is higher in “hERG current change (%, negative = inhibition) at 10uM” value: -26.2% for the first, -3.8% for the second.

First: Cc1ccc2nc(SCC(=O)Nc3ccc4sc(C)nc4c3)c(C#N)cc2c1
Second: Cc1nc(NC(=O)CSc2nnc(Cn3nnc4ccccc43)n2C)sc1C
The “hERG current change (%, negative = inhibition) at 10uM” value of the first is higher: 8.11% for the first, 0.783% for the second.

Compared with `CCCCN(CCCC)CCCNC(=O)C1CC(c2ccc(C(F)(F)F)cc2)=NO1` (centres unmarked), `O=C(CC1C(=O)NCCN1Cc1ccc(F)cc1)NCCCn1cccn1` (centres unmarked) is higher in “hERG current change (%, negative = inhibition) at 10uM” value: -72.3% for the first, -31.9% for the second.

First: O=C(CN1C(=O)NC2(CCCCC2)C1=O)N1CCN(S(=O)(=O)c2ccc(Cl)s2)CC1
Second: O=C(N1CCCCC1)N1CCN(S(=O)(=O)c2ccc(Cl)cc2)CC1
The “hERG current change (%, negative = inhibition) at 10uM” value of the first is higher: 4.79% for the first, -39.3% for the second.

Compared with `COc1cccc(Oc2ccc(S(=O)(=O)N3CCCC3)cc2[N+](=O)[O-])c1`, `Cc1ccc(S(=O)(=O)N2CCN=C2SCc2c(F)cccc2Cl)cc1` is higher in “hERG current change (%, negative = inhibition) at 10uM” value: -57.1% for the first, 10.4% for the second.

Going from `CCOC(=O)C1=C(C)N=c2s/c(=C/c3cccc([N+](=O)[O-])c3O)c(=O)n2C1c1cc(OC)c(OC)c(OC)c1` (centres unmarked) to `COc1cc(CCC(=O)OCC(=O)NC(=O)c2ccc(Cl)cc2)cc(OC)c1OC`, the “hERG current change (%, negative = inhibition) at 10uM” value rises from -13.2% to 13.3%.

Going from `Cc1nc(SCc2ccc([N+](=O)[O-])cc2)nc2ccccc12` to `Cc1ccc(CSc2nc(N)cc(N)n2)cc1`, the “hERG current change (%, negative = inhibition) at 10uM” value rises from 0.233% to 17.8%.

Compared with `CCCCN(C(=O)c1ccc(-c2ccc([N+](=O)[O-])cc2)o1)c1c(N)n(CC(C)C)c(=O)[nH]c1=O`, `CCOC(=O)CN(C(=O)COc1ccc2c(C)cc(=O)oc2c1)c1ccc(OCC)cc1` is higher in “hERG current change (%, negative = inhibition) at 10uM” value: -19.3% for the first, -2.79% for the second.

Compared with `CCOCC(=O)Nc1cc(OC)c(Cl)cc1OC`, `CCOC(=O)CNC(=O)Nc1cccc(Cl)c1C` is higher in “hERG current change (%, negative = inhibition) at 10uM” value: 8.17% for the first, 16.9% for the second.

First: Cc1cc(C)n(-c2ncnc3c2oc2ccccc23)n1
Second: Cc1ccccc1-c1nnc(SCC(=O)NCc2ccc3c(c2)OCO3)n1C
The “hERG current change (%, negative = inhibition) at 10uM” value of the first is lower: -10% for the first, -8.1% for the second.

Going from `CC1CN(C(=O)CSc2nnc(NC(=O)NC(C)(C)C)s2)CC(C)O1` (centres unmarked) to `CC(C)c1nnc(SCC(=O)NC(C)(C)C)n1C`, the “hERG current change (%, negative = inhibition) at 10uM” value falls from 19% to 10.9%.

Going from `COCc1ccc(C(=O)N2CCCC(C(=O)c3ccc(Cl)cc3C)C2)o1` (centres unmarked) to `CCOc1ccc(OCc2ccc(C(=O)N3CCc4ccccc4C3)o2)cc1`, the “hERG current change (%, negative = inhibition) at 10uM” value rises from -34.2% to -10.4%.

Going from `O=C(NCC1CCCO1)C1CCN(c2ccc(S(=O)(=O)N3CCCC3)cc2)CC1` (centres unmarked) to `O=C(Nc1ccc2c(c1)OCCO2)C1CCCN(S(=O)(=O)Cc2ccccc2)C1` (centres unmarked), the “hERG current change (%, negative = inhibition) at 10uM” value falls from -4.69% to -11%.

First: COc1ccc(C)cc1S(=O)(=O)N(C)CC(=O)NC1CCCC1
Second: CCOC(=O)N1CCC(NC(=O)c2ccc3c(=O)n4c(nc3c2)CCCC4)CC1
The “hERG current change (%, negative = inhibition) at 10uM” value of the first is lower: 3.63% for the first, 12% for the second.

Going from `COCCN(CCOC)C(=S)Nc1cc(S(=O)(=O)N(C)C)ccc1C` to `CC(=O)c1c(C)[nH]c(C(=O)Nc2cc(S(=O)(=O)N(C)C)ccc2C)c1C`, the “hERG current change (%, negative = inhibition) at 10uM” value rises from 0.217% to 15.5%.

Compared with `O=[N+]([O-])c1nn(-c2ccccc2)[n+]([O-])c1N1CCN(c2ccccc2)CC1`, `CCCC(=O)N1CCN(c2ccc([N+](=O)[O-])c(NC(C)c3ccccc3)c2)CC1` (centres unmarked) is lower in “hERG current change (%, negative = inhibition) at 10uM” value: -0.32% for the first, -8.07% for the second.

First: Cc1ccc(S(=O)(=O)NC(=O)Nc2ccc(F)cc2)cc1
Second: CCc1ccc2[nH]c(=O)c(CN(CCCN3CCOCC3)C(=O)Nc3ccc(F)cc3)cc2c1
The “hERG current change (%, negative = inhibition) at 10uM” value of the first is higher: 2.85% for the first, -68.1% for the second.

First: CCOc1ccc(C(=O)NCC(C)C)cc1
Second: CCOC(=O)Cc1csc(NC(=S)NC(=O)c2ccc(Cl)cc2)n1
The “hERG current change (%, negative = inhibition) at 10uM” value of the first is lower: -3.67% for the first, 14.6% for the second.

First: O=C(CCCCl)Oc1ccc2cc(-c3ccc4ccccc4n3)c(=O)oc2c1
Second: COc1ccc(Cc2nnc(SCC(=O)NC(C)c3ccccc3)o2)cc1 (centres unmarked)
The “hERG current change (%, negative = inhibition) at 10uM” value of the first is higher: 4.58% for the first, -8.86% for the second.

First: CC(C)(C)NC(=O)CN1CCCN(C(=O)c2cccc(S(=O)(=O)N3CCc4ccccc43)c2)CC1
Second: CC(C(=O)NC1CCCc2ccccc21)N1CCN(Cc2ccc3c(c2)OCO3)CC1 (centres unmarked)
The “hERG current change (%, negative = inhibition) at 10uM” value of the first is higher: -7.51% for the first, -51.9% for the second.

First: CCCCC(=O)Nc1ccc2c(c1)nc1n2CCOC1
Second: COc1cc(NC(=O)Cn2c(=O)n(CC3CCCO3)c(=O)c3ccccc32)cc(OC)c1 (centres unmarked)
The “hERG current change (%, negative = inhibition) at 10uM” value of the first is higher: 15.6% for the first, 3.1% for the second.

Compared with `Cn1c(N)c(C(=O)CNC2CCCCC2)c(=O)n(C)c1=O`, `Cn1c(SCC(=O)c2c(N)n(C)c(=O)n(C)c2=O)nnc1-c1ccccc1F` is higher in “hERG current change (%, negative = inhibition) at 10uM” value: 5.61% for the first, 23.7% for the second.

Compared with `CCOC(=O)CC1=CSC2=NS(=O)(=O)CCN12`, `CCOc1ccc(N2C(=O)c3ccc(C(=O)OCC(=O)N(CC)C4CCS(=O)(=O)C4)cc3C2=O)cc1` (centres unmarked) is lower in “hERG current change (%, negative = inhibition) at 10uM” value: 8.26% for the first, -22.3% for the second.

First: Cn1c(=O)[nH]c(=O)c2[nH]c(NCCCN3CCOCC3)nc21
Second: CCCCC(C(=O)NCCC(C)C)N(CCCN1CCOCC1)C(=O)c1snc(C(N)=O)c1N (centres unmarked)
The “hERG current change (%, negative = inhibition) at 10uM” value of the first is higher: 17.2% for the first, -32.1% for the second.

Compared with `COc1ccccc1OCC(=O)c1[nH]c(C)c(C(C)=O)c1C`, `COc1ccc(/C=C2\CCCc3c2nc2ccccc2c3C(=O)O)cc1OC` is lower in “hERG current change (%, negative = inhibition) at 10uM” value: -2.63% for the first, -3.08% for the second.

Compared with `CCC/C(=N\NC(=O)CCC(=O)NCc1ccccc1)c1ccccc1`, `CC/C(=N/N=C(\CC)c1ccccc1)c1ccccc1` is lower in “hERG current change (%, negative = inhibition) at 10uM” value: 17.9% for the first, 5.16% for the second.

Going from `O=C(CN(C(=O)c1csnn1)c1ccc2c(c1)OCCO2)NCc1ccc(F)cc1` to `COc1ccc(C(=O)N/N=C/c2ccc(OC)c(COc3ccc(F)cc3)c2)cc1`, the “hERG current change (%, negative = inhibition) at 10uM” value falls from -3.9% to -35.2%.

Compared with `CC1=CC(=O)C=C(C)C1=NOC(=O)c1cccc([N+](=O)[O-])c1`, `CCOC(=O)CCNC(=O)Nc1cc2nc(C)n(Cc3cccc(Cl)c3)c2nc1C` is lower in “hERG current change (%, negative = inhibition) at 10uM” value: 9.59% for the first, 4.33% for the second.

First: CCc1nn(C(CC)C(=O)NCCc2ccc(OC)cc2OC)c(=O)c2cc3occc3n12 (centres unmarked)
Second: COc1ccc2[nH]c3c(c2c1)CCn1c-3nc2ccccc2c1=O
The “hERG current change (%, negative = inhibition) at 10uM” value of the first is lower: -25.6% for the first, -4.14% for the second.

First: S=c1[nH]nc2c3c4c(sc3ncn12)CCCC4
Second: Cc1ccc2scc(CN3CCCC3)c2c1.Cl
The “hERG current change (%, negative = inhibition) at 10uM” value of the first is higher: 18.4% for the first, -12.9% for the second.

First: CCOC(=O)C1=C(C)NC(C)=C(C(=O)OCC)C1c1sccc1C
Second: Cc1ccc(-n2c(Cc3cccs3)nnc2SCC(=O)OC(C)C)cc1
The “hERG current change (%, negative = inhibition) at 10uM” value of the first is higher: 1.39% for the first, -24.7% for the second.

Compared with `FC(F)C(F)(F)c1cc(-c2ccc(Cl)cc2)n[nH]1`, `Cc1ccc[n+](CC(=O)c2ccc(Cl)cc2)c1.[Cl-]` is lower in “hERG current change (%, negative = inhibition) at 10uM” value: 26.5% for the first, 8.07% for the second.

Going from `O=C(CON=C1c2ccccc2-c2ccccc21)NC12CC3CC(CC(C3)C1)C2` to `O=C1c2ccccc2-c2c1cccc2C(=O)N1CCCCCC1`, the “hERG current change (%, negative = inhibition) at 10uM” value rises from -7.23% to 0.506%.

Compared with `CC(C(=O)[O-])c1ccc(CC2CCCC2=O)cc1.[Na+]` (centres unmarked), `Cc1nnc2n(c1=O)C(CS(=O)(=O)c1ccccc1)CS2` (centres unmarked) is lower in “hERG current change (%, negative = inhibition) at 10uM” value: 10.6% for the first, -7.5% for the second.

Going from `COc1ccc(N(C(=O)c2cccnc2)S(=O)(=O)c2ccc3c4c(cccc24)C(=O)N3C)cc1` to `CC(C)Cn1c(-c2cccnc2)nc2c1c(=O)[nH]c(=O)n2CC(C)C`, the “hERG current change (%, negative = inhibition) at 10uM” value falls from 17.7% to 0.503%.

Compared with `O=S(=O)(c1ccccc1)N1CC=C(c2ccccc2)CC1`, `Cc1ccc2nc(C3CCN(CC(=O)N4CCCCCC4)CC3)[nH]c2c1` is lower in “hERG current change (%, negative = inhibition) at 10uM” value: 10.2% for the first, -22.2% for the second.

Compared with `O=C(CNC(=O)C1CCCCC1)OCC(=O)c1ccc(Cl)s1`, `O=C(CCN1CCCCC1)NNC(=O)C12CC3CC(CC(C3)C1)C2` is higher in “hERG current change (%, negative = inhibition) at 10uM” value: 15.7% for the first, 41.3% for the second.
